167 variants from the RNAGym collection of RNA variant scans (doi:10.1093/nar/gkz1192) can be followed below.

B1: CPEB3 Ribozyme (parent)
chain: UAACAGGGGGCCACAGCAGAAGCGUUCACGUCGCAGCCCCUGUCAGAUUCUGGUGAAUCUGCGAAUUCUGCUGUAUAUCUC

The source gives no read counts; variants with many changes may rest on few reads.

In the data set the parent is B1. Nature of the data set: self-cleavage, relative activity (ratio to wild type); higher = more cleavage; in vitro, sequencing. Summed up: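 Libraries of CPEB3 self-cleaving ribozyme mutants came from rounds of error-prone PCR and carried barcodes, which DNA sequencing matched to variants. In vitro transcription used T7 RNA polymerase at 37°C for 5 hours, with a further 15 min in DNase I before EDTA stopped the reaction; the ribozymes cleaved during both steps. The RNA was reverse transcribed with template switching and sequenced on Illumina. Relative activity is the cleaved/total read fraction of a variant divided by that of the unmutated ribozyme, averaged over three batches with at least 5 reads.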
As to A5C G7A U72A, the self-cleavage was found to be 0.18.

A5G A13G A56G U58C: the self-cleavage is 0.4. In the case of A5G A13G A15G A21U, the self-cleavage worked out at 0.

In the case of C4U U25C U60A U69A, the self-cleavage stood at 0.16. The figure for C4U G19C A47G A64G is 0.42. As for A5G A13G U69C U80C, the self-cleavage turned out to be 0.2.

In the case of A5C U31C U41A U51A U54C, the self-cleavage was 0.15. In the case of A5G A13G A20U U25C, the self-cleavage turned out to be 0.64. The figure for A5C C39A G53A is 0.12.

With A5G A13G A21G A56G A57G U69C, the self-cleavage stood at 0.31. For A5G A13U A20G U41C U60A U69C A77G, the self-cleavage was 0.14.

For the variant A5G A13G A21C A65G U78A, the self-cleavage is 0.18.

For the variant C4U G7A A65G, the self-cleavage is 0.08.

As to A5C A15G U51C A57G A75G, the self-cleavage was determined as 0.79.

As for A5G A13U U31C U43G A64U U80A, the self-cleavage stood at 0.07.

Consider A5G A13G U43C U49C G70C, for which the self-cleavage came out at 0. In the case of C4U U26A U80C, the self-cleavage came out at 1.13. As to C4U G8C A45G U67G A75U U78C, the self-cleavage worked out at 0.19. With A5C C50U U72C A77C, the self-cleavage is 0.58. On to A5G A13U A64G U69A, for which the self-cleavage is 0.6.

In the case of C4U U26C A35U U48C, the self-cleavage was 0.24.

Consider C4U U26C U31A A65G U67C U69C, for which the self-cleavage is 0.11. As for A5C A28G A45G U54C A64U A77U, the self-cleavage is 0.09. Under A5C G9A C14A A28C G33C A45G U72A stands 0.04; under C4U U60C U69A U78A U80A, 0.39; under A5C U25A C29G U49C U74C U80G, 0.21. For A5G A13G G63A, the self-cleavage was determined as 0.18. For the variant A5C G9C U25A A28U G36A, the self-cleavage amounted to 0.08. Turning to A5C C14U A21G U31C U41C A65G, the self-cleavage worked out at 0.09. Turning to A5C A35U C39A U41C U49C, the self-cleavage is 0.48.

On to A5G A13G U31C A64U, for which the self-cleavage came out at 0.1. Take A5C U25A A28G U31C A65G: the self-cleavage was determined as 0.06. In the case of A5G A13U U25C A35U U41C U51A, the self-cleavage was 0.09. For A5G A13G A18G U26C A45U U69A, the self-cleavage was 0.05.

Turning to C4U U69G U76C, the self-cleavage turned out to be 0.98. For the variant A5C A15U A20U A28C A56U U67C, the self-cleavage is 0.16.

In the case of A5C A35G U48A U80C, the self-cleavage turned out to be 1.2.

A5C G6A U66C U78C: the self-cleavage was 0.06. Take A5C G6A A13G A28G: the self-cleavage was 0.41. For the variant A5G A13U U54C A64U, the self-cleavage worked out at 0.1. Under A5G A13U A21G C38G U51A U76A stands 0.05; under A5C A28G A57U U80C, 0.45. Regarding A5C U51C C79U, the self-cleavage is 0.71. Turning to A5C C12G G46A, the self-cleavage amounted to 0.34.

With A5G A13U U49A U67A U80C, the self-cleavage worked out at 0.07. In the case of A5C G9A A56G, the self-cleavage stood at 0.12. Under A5G A13C U43A A57U U69A A77U stands 0.21; under A5C A20G C29U U58C U72A A75G, 0.09. Turning to C4U U31C U54A U76A, the self-cleavage came to 1.14. For the variant A5G A13G U54C U80C, the self-cleavage came to 0.32. With A5G A13G C38G A64G U67C, the self-cleavage was determined as 0.2. The figure for A5G A13U C39A U41A is 0.47; for A5G A13G A15G A35U C37U U41A U72C it is 0.06; for A5C A20G U41A A57G it is 0.29. In the case of C4U G8A U41C U66C G70U A77G U78C, the self-cleavage came to 0.05. Take A5G A13G A18G U25C U72C: the self-cleavage is 0.05. Under A5G A13C A28G U60A stands 0.26; under A5C A57G U67C U69C, 0.18; under A5C A35G A77G, 1.21. As for A5C A21G C59U, the self-cleavage is 0.29. The figure for C4U G22A U78C is 0.12; for A5G A13U C37A U54C U66C it is 0.09. With A5C A15G A20U U31A C32G A64G, the self-cleavage turned out to be 0.49. Consider A5G A13U A47G U60A U67G U80C, for which the self-cleavage stood at 0. A5C A13U G42A A77G: the self-cleavage stood at 0.31. For A5C A35C U41A U67C, the self-cleavage was 0.35. Turning to C4U G6C U49C A56G U72G A77G, the self-cleavage came out at 0.19. Turning to C4U U26A A28G G36A U43A A47G G70A, the self-cleavage came to 0.1. On to A5G A13G U51A U54A A75U U78C, for which the self-cleavage was 0.51. For the variant A5G A13U A57G U66C, the self-cleavage was determined as 0.16. Turning to A5G A13G U66C, the self-cleavage was 0.1. As to A5C G8U A28G U80C, the self-cleavage came to 0.27. As to C4U U25A U41A U43C, the self-cleavage was 0.54.

Regarding A5C A15U U78C, the self-cleavage was 1.06.

As to A5C G19A U43A U76A, the self-cleavage came out at 0.21. Turning to A5C A21G A45G A65G, the self-cleavage came out at 0.38. Consider A5G A13U U49G U69C, for which the self-cleavage was 0.14.

For the variant A5C A20G U51A G52A U58A U80C, the self-cleavage was 0.22.

In the case of A5G A13G A45G, the self-cleavage turned out to be 0.72. Turning to A5G A13G G24U U31C A47G, the self-cleavage amounted to 0.29. As for A5G A13G A21U G24A U25C U48C, the self-cleavage worked out at 0.32. With A5C U26C U51A U69C, the self-cleavage stood at 0.31. As to A5C G9A G36C A47G C79G, the self-cleavage is 0.03. The figure for A5G A13G C14A U25C U31C C68G U74C is 0.1; for A5C A13G A47C A57G U67A it is 0.35; for A5C G9U U72C A77G it is 0.11. On to C4U U31C U48A U74G, for which the self-cleavage was 0.59. Take A5C G10A U26C U49A U54C U66C: the self-cleavage is 0.07. For A5G A13U A15C U26A U49A U74C, the self-cleavage came out at 0.15. Turning to A5C G10A A21G G33A, the self-cleavage came out at 0.08. Regarding A5G A13U A20G U60C, the self-cleavage was found to be 0.08. In the case of A5G A13U A21G C68G, the self-cleavage amounted to 0.15.

A5G A13U U49A C50A U76C: the self-cleavage was determined as 0.42. With A5G A13U A47G U67C U69A U78C, the self-cleavage turned out to be 0.32.

As for A5C A20G U48C, the self-cleavage stood at 0.2.

For C4U G10A A18G U41G U67C U69A A75G, the self-cleavage amounted to 0.04. In the case of A5G A13G A20U A56U G70A, the self-cleavage was determined as 0.12. Under A5C C32U U41C A65G U69C C71G stands 0.08; under A5G A13U A20G U43A U80C, 0.81. As to A5G A13G G24A A35G U43A A56G U58C, the self-cleavage was 0.04. Under A5C U41A A47U A57U stands 0.33; under A5C G8A A21G U49C U54C, 0.19. For the variant C4U C38U U66C U74C, the self-cleavage is 0.27.

As to A5C C12U U31A A65G, the self-cleavage was 0.25.

Turning to A5C A21U A56U C71A, the self-cleavage was 0.26.

With A5G A13C U41C A56G, the self-cleavage was 0.48. For C4U U41C U54C A65C, the self-cleavage is 0.16. Under C4U G9A A20U A56U U69C stands 0.07; under A5C U25A C34U U58C, 0.16. On to C4U C29A U31C U51A U69A, for which the self-cleavage came to 0.21. In the case of C4U U26A A28G A35G U43C, the self-cleavage amounted to 0.27.

In the case of A5G A13C U31A U48C A77U, the self-cleavage is 0.14. Regarding C4U G42A A45G, the self-cleavage is 0.11. Regarding C4U U67C U69C, the self-cleavage stood at 0.24. The figure for A5G A13U A15U A28U U54C is 0.14; for A5C A15G U25C A45C A57G it is 0.63. As for A5C A20G A28G C39A A75U, the self-cleavage was 0.45.

Regarding C4U C12A C40U U72C, the self-cleavage came to 1.22. Take C4U U41G G46U U54A A57G: the self-cleavage stood at 0.09. The figure for C4U G16U U41C A57G U72C is 0.62; for A5G A13G A47G it is 0.64; for A5G A13U A21U U74A it is 0.44. In the case of A5C G19C C40A U49A, the self-cleavage came out at 0.1. Under C4U U41C U43A U54A U66C stands 0.47; under A5C A35G U58C, 1.13. Take A5C U43C U48C A57U U74C: the self-cleavage is 0.07.

As to C4U U26C A56G U74C, the self-cleavage stood at 0.55. For A5G A13U U41A A45U U49A U80C, the self-cleavage was found to be 0.71. The figure for A5C C32U A56U U60C is 0.47; for A5G A13U U25C A77U it is 0.07.

With A5C G9U A28U, the self-cleavage amounted to 0.08. Take C4U G6A A13G C14U U72C: the self-cleavage stood at 0.28. For A5C A15G A64G U80A, the self-cleavage turned out to be 0.99.

For C4U C11U U67C, the self-cleavage is 0.1. Under A5C A21G G22C U51C stands 0.12; under A5G A13C A64G U72C A77G, 0.35. Under A5G A13G U26C U60C U67C A77G stands 0.12; under A5G A13U A65C U72A, 0.16. The figure for A5G A13U A28G is 0.51; for A5C U26C U41C it is 0.17. On to A5G A13G G46A A64G C71A U80C, for which the self-cleavage was found to be 0.15. The figure for A5C U43G A56G is 0.34; for A5C A21G G30U C34U U41C it is 0.21. A5C A18G A20C A65G: the self-cleavage amounted to 0.15. Under C4U G10U C34A U43C U60A U72A stands 0.09; under A5C G9U A18G A35C U60C, 0.

With A5C U25A U43C U80C, the self-cleavage is 0.25. Turning to C4U C23U A35U G55A U66C, the self-cleavage was 0.12. For the variant A5C C71U A77G, the self-cleavage is 0.97. Take C4U G19U A21G G52U U60A: the self-cleavage was determined as 0.16. As to A5C G19U U26C U31A U41A A75G, the self-cleavage turned out to be 0.11. As for C4U U41C A47G A57G U67C U69A, the self-cleavage is 0.34. Regarding C4U G9U A15G C29U, the self-cleavage was 0.08. A5C G9A A20U C32U U78C: the self-cleavage worked out at 0.72. For the variant A5G A13U A18U A20U A28G U66C, the self-cleavage came out at 0.29.

Consider A5C A21C C37A A57G A64G, for which the self-cleavage was found to be 0.23. Consider A5G A13U A21G U41A, for which the self-cleavage worked out at 0.33. A5C G7C U41C U60C U80A: the self-cleavage was 0.43. With C4U G9A U41C, the self-cleavage worked out at 0.56. In the case of A5G A13G U41C U43C, the self-cleavage stood at 0.14.

A5C A20G U41C U58C: the self-cleavage was 0.42. Under A5G A13G G24A C38A U41G U74A stands 0.08.

With A5G A13G A35G, the self-cleavage was 0.74. Under A5C G6A A13U C23G A57G C71G stands 0.1; under A5G A13G A18U U54A A56U, 0.16; under C4U U26G U67C, 0.15. On to A5G A13U C37U, for which the self-cleavage is 0.5.
